Results: article PMC4336329 (PLoS ONE, 2015)
The whole screen tested about 310,000 compounds, of which about 2,200 (0.71%) showed an effect of 50% or more. The effect is printed as a negative number. The list shows a part of the results.

molecular target: human ether-à-go-go-related gene (hERG) potassium channel (human, UniProt Q12809); test: primary screen, population patch clamp on CHO cells stably expressing hERG
Sequence (Q12809 whole entry, looked up): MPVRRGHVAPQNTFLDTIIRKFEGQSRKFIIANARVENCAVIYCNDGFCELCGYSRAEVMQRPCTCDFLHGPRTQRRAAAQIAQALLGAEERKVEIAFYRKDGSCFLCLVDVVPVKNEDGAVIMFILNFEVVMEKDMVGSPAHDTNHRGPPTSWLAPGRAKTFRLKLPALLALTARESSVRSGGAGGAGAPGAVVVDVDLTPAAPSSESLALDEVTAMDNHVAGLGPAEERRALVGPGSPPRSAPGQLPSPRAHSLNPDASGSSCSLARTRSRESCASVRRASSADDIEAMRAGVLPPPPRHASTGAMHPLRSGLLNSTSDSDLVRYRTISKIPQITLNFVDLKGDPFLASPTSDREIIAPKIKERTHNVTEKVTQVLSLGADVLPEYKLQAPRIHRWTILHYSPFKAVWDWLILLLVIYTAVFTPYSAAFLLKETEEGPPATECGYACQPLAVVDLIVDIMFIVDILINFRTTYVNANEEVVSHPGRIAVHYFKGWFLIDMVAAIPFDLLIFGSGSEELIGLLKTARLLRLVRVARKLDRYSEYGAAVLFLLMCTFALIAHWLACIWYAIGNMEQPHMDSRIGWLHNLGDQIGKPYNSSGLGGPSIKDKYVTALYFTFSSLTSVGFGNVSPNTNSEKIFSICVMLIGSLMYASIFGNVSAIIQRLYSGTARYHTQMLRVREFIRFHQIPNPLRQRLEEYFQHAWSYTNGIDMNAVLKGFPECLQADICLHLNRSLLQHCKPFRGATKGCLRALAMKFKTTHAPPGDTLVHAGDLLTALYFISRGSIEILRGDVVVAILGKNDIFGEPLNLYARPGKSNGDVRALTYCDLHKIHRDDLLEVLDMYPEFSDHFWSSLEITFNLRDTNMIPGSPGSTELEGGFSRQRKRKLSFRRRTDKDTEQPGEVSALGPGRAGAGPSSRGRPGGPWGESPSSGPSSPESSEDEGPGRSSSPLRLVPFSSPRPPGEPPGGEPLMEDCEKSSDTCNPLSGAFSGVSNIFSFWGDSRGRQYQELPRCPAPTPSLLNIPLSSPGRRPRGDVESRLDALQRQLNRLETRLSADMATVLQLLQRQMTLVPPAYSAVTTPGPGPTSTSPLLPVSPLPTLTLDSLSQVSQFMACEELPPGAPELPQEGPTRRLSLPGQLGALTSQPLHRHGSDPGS

| SMILES | hERG current change (%, negative = inhibition) at 1uM [%] |
| --- | --- |
| O=C(Cc1ccc([N+](=O)[O-])cc1)N1CCc2ccccc2C1 | -1.71 |
| COc1cc(CNCCO)cc(Br)c1OCc1ccccc1.Cl | -4.71 |
| CCOc1ccc(/C=N/NC(=O)c2ccc(F)cc2)cc1CN1CC2CC(C1)c1cccc(=O)n1C2 (centres unmarked) | 11.1 |
| COc1ccc(CCN2C(=NC(=O)C(C)C)SC3CS(=O)(=O)CC32)cc1 (centres unmarked) | 9.19 |
| CCOC(=O)c1cc2c(=O)[nH]ccc2nc1C(F)(F)F | 8.16 |
| CCCCC12CN3CCN(CC(C3)/C1=N\NC(=O)c1ccccc1N)C2 | -15.3 |
| Cc1nc2scc(C)n2c(=O)c1S(=O)(=O)N1CCN(c2ccc(F)cc2)CC1 | 6.86 |
| Cc1ccc(S(=O)(=O)N2CCC(C(=O)Nc3ccc4c(c3)COC4=O)CC2)cc1 | 10.2 |
| O=C(CCc1ccccc1)NNC(=S)NCCc1ccccc1 | 9.98 |
| COc1ccccc1NC(=O)/C=C/c1ccc(OC)c(S(=O)(=O)N2CCOCC2)c1 | 9.09 |
| O=C(CC1C(=O)NCCN1Cc1ccc(-c2ccccc2)cc1)NCc1ccccc1 (centres unmarked) | 6.77 |
| Cc1ccc(C(=O)Nc2ccc(Br)cc2)cc1S(=O)(=O)Nc1ccccn1 | 13.5 |
| Cc1nc(NCc2cccnc2)c2c3c(sc2n1)CCCC3 | -7.05 |
| CCOC(=O)NC(=O)/C(C=Nc1ccc(Cl)cc1)=C(\C)O | 14.6 |
| COc1ccccc1NC(=O)c1ccc(Br)c(S(=O)(=O)N2CCCC2)c1 | 13.6 |
| O=C(O)c1ccc2c(=O)n3c(nc2c1)/C(=C/c1ccc(Cl)c(Cl)c1)CC3 | 11.5 |
| COc1cccc(-c2cc(C(=O)N3CCN(c4ccc(F)cc4)CC3)no2)c1 | 13.5 |
| Cc1cccc(-n2cc(CN3CCN(c4ccccn4)CC3)c(-c3cccc(F)c3)n2)c1 | 8.32 |
| COC1(C)CC2C(CC1OC(=O)c1cc([N+](=O)[O-])cc([N+](=O)[O-])c1)C2(C)C (centres unmarked) | 1.1 |

| SMILES | hERG current change (%, negative = inhibition) at 1uM [%] |
| --- | --- |
| CCOc1ccc(C2C(C(=O)NC)=C(C)Nc3nc4ccccc4n32)cc1OC (centres unmarked) | 15.2 |
| O=C(Nc1cccc(S(=O)(=O)NC2=NCCCCC2)c1)c1cc(-c2ccccc2)nc2ccccc12 | 9.54 |
| CCOC(=O)c1c(C)[nH]c(C(=O)N2CCC(C(=O)OCC)CC2)c1C | 16.1 |
| OCC[C@@H]1C[C@H](O)[C@@H](O)[C@]2(CCCCO2)O1 | 20.9 |
| CC(=O)c1cc2c(=O)c3cc(C)ccc3oc2nc1C | -5.19 |
| COCCNC(=S)N(CCc1c(C)[nH]c2ccccc12)Cc1cccnc1 | 7.64 |
| CCc1ccc(N2CC(C(=O)Nc3cc(C)ccc3F)CC2=O)cc1 (centres unmarked) | 7.97 |
| O=C(NCCOc1ccc(Cl)cc1)C1CC(=O)N(c2ccc3c(c2)OCCO3)C1 (centres unmarked) | -7.81 |
| O=C(O)Cn1ccc2ccccc21 | 18.2 |
| CCCCOc1ccc(CSC2=NCCN2)cc1[N+](=O)[O-].Cl | -22.3 |
| OCC[C@@H]1C[C@@H](O)[C@H](O)[C@@]2(CCCCO2)O1 | 15.7 |
| CN(C(=O)CSc1nncc2ccccc12)C1CCCCC1 | 14.7 |
| COc1cccc(C(=O)Nc2ncc3c(n2)CC(c2ccc(OC)cc2OC)CC3=O)c1 (centres unmarked) | 4.75 |
| COc1ccc(/C(=C/Nc2cccc(Br)c2)C(C)=O)cc1OC | 13.6 |
| Cc1noc(N)c1C(=O)Nc1ccc(F)cc1 | 14.6 |
| O=C(Nc1cccc2ncccc12)c1ccc(Br)c([N+](=O)[O-])c1 | 10.3 |
| c1ccc(-c2nc(NCCCN3CCOCC3)c3ccccc3n2)cc1 | 3.18 |
| COc1cc(C)c(Br)cc1S(=O)(=O)NCCCN1CCOCC1 | 10.4 |
| CC(Sc1ccccc1)C(=O)N1CCN(S(=O)(=O)c2ccccc2)CC1 (centres unmarked) | 2.73 |

| SMILES | hERG current change (%, negative = inhibition) at 1uM [%] |
| --- | --- |
| O=C(Nc1cnc2ccccc2c1)c1ccncc1 | 11.6 |
| Cc1sc(NC(=O)C2CCCCC2)c(C#N)c1-c1ccccc1 | 7.6 |
| Nc1cc(=O)[nH]c(SCC(=O)Nc2ccccc2Sc2ccccc2)n1 | 14.2 |
| CC(C)(C)NC(=O)CSc1nnc(Cc2ccccc2)n1CC1CCCO1 (centres unmarked) | 4.15 |
| O=C(CN1C(=O)NC2(CCCCCC2)C1=O)c1ccc(Cl)s1 | 11.9 |
| COc1ccc(C(=O)c2c(C)c3cc(C)ccc3n2CC(O)CN2CCOCC2)cc1.Cl (centres unmarked) | -4.77 |
| O=C(Nc1cccc(Cl)c1)Nc1cnccn1 | 14.5 |
| COc1ccc(CN(C)S(=O)(=O)c2nnc(NC(=O)c3ccccc3OC)s2)cc1OC | 18.8 |
| COc1ccc(N2C(=O)C(Cl)=C(NCc3ccccc3)C2=O)cc1 | 5.09 |
| Cc1ccc(NC(=S)NCc2cccs2)c(C)c1 | 17.1 |
| N#CCC(=N)N1CCN(c2ccc(Cl)cc2)CC1 | 2.52 |
| Cc1ccc(SCC(=O)Nc2cccc(-c3nnc(-c4ccco4)o3)c2)cc1 | 5.32 |
| Cc1oc(-c2ccc(F)cc2)cc1-c1nn2c(-c3ccoc3C)nnc2s1 | 18.9 |
| Cc1ccc(NS(=O)(=O)c2cc(C(=O)N3CCOCC3)ccc2C)cc1 | -1.29 |
| CCCNC(=O)Nc1cc(OCC)c(N2CCOCC2)cc1OCC | -4.51 |
| CSc1nc(Sc2ccccc2)c2ccccc2n1 | 10.5 |
| COc1cc(CN2CCCC(CCC(=O)NCc3ccc(C)o3)C2)cc2c1OCO2 (centres unmarked) | -28.7 |
| CCCN(CCC)c1ccc(C(O)c2nnc(-c3ccccc3)o2)cc1 (centres unmarked) | 2.97 |
